Test results as given in PubChem BioAssay AID463173 (ICCB-Longwood Screening Facility, Harvard Medical School, 2010).
Screen size: about 52,000 compounds; about 1,700 (3.3%) were called active. Rule as the data show it: active = survival mostly below about 52% (no sharp cut-off); inactive = mostly above about 56%. The list shows a part of the results.

Tested on: Wild type
Assay: S. aureus survival, RN4220 and DeltatarO strains – OD600, teichoic acid synthesis inhibitors, primary screen (AID 463173)
Conditions: S. aureus RN4220 wild type/DeltatarO growth, OD600, 18 h, stronger effect = lower value, screened at 18.75 µg/mL (by protocol)

**Q.** For `CC1CCN(C(c2nnnn2Cc2ccccc2)C(C)C)CC1` (configuration not stated), which survival is on record?
**A.** The survival was inactive: 109%.

**Q.** How did the survival turn out when `Cc1csc2nc(COC(=O)c3ccc(F)cc3)cc(=O)n12` was run?
**A.** Its survival is inactive: 81%.

**Q.** `Cc1ccc(C)c(NC(=O)Cn2cnc3c(oc4ccccc43)c2=O)c1` was tested. Which survival did it give?
**A.** The survival was inactive: 86%.

**Q.** Which survival does the source give for `Cc1cc(C)cc(-n2nnnc2SCC(=O)Nc2cccc(NC(=O)c3ccco3)c2)c1` here?
**A.** The survival was inactive: 107%.

**Q.** How did the survival turn out when `CCc1ccc(C2=CC(c3cccc(C)c3)n3c(nc4ccccc43)N2)cc1` (configuration not stated) was run?
**A.** Its survival is inactive: 87%.

**Q.** For `Cc1cccc(N(CC(=O)NCc2ccccc2)S(C)(=O)=O)c1C`, which survival is on record?
**A.** The survival was inactive: 69%.

**Q.** How did the survival turn out when `Cc1ccc2[nH]cc(NC(=O)NCc3ccco3)c(=O)c2c1` was run?
**A.** Its survival is inactive: 109%.

**Q.** How did the survival turn out when `CCc1ccc(-c2nc(CN3CCC(C(=O)NCCc4ccc(C)cc4)CC3)c(C)o2)cc1` was run?
**A.** The survival was inactive: 85%.

**Q.** With `Cc1cc(C)nc(NS(=O)(=O)c2ccc(NC(=S)NC(=O)/C=C/c3ccco3)cc2)n1` as the molecule, how does the survival read?
**A.** The survival was inactive: 122%.

**Q.** With `O=C(NCc1ccco1)c1ccccc1` as the molecule, how does the survival read?
**A.** The survival was inactive: 110%.

**Q.** `O=C(Nc1ccc(OCc2cc(=O)n3ccsc3n2)cc1)c1ccc(F)cc1` was tested. Which survival did it give?
**A.** The survival was inactive: 92%.

**Q.** For `Cc1nnc(N2CCC(C(=O)NCCc3ccccc3)CC2)c2nn(-c3ccccc3)c(C)c12`, which survival is on record?
**A.** Its survival is inactive: 91%.

**Q.** `COc1ccc(CNC(=O)CSCc2nc(-c3ccccc3F)oc2C)cc1` was tested. Which survival did it give?
**A.** The survival was inactive: 90%.

**Q.** Which survival does the source give for `COc1ccccc1-c1cc(C(=O)N2CCN(c3ccccc3)CC2)no1` here?
**A.** Its survival is active: -10%.

**Q.** With `Cc1cc(C)c2c(=O)cc(C(=O)Nc3ccc(C)c(Cl)c3)oc2c1` as the molecule, how does the survival read?
**A.** Its survival is inactive: 103%.

**Q.** With `CCOC(=O)Cn1c(C2CC(=O)N(c3ccc(C)cc3)C2)nc2ccccc21` (configuration not stated) as the molecule, how does the survival read?
**A.** The survival was inactive: 87%.

**Q.** For `COCCn1c(-c2ccccc2)c(C)n2c3c(=O)n(C)c(=O)n(C)c3nc12`, which survival is on record?
**A.** The survival was inactive: 95%.

**Q.** With `Cc1ccccc1OCCn1cc(C(=O)C2CCCCC2)c2ccccc21` as the molecule, how does the survival read?
**A.** The survival was inactive: 124%.

**Q.** `CCC(=O)N1c2ccccc2CC1C(=O)NCCc1ccc(SC)cc1` (configuration not stated) was tested. Which survival did it give?
**A.** Its survival is inactive: 97%.

**Q.** `CSc1ccc(/C=C(\C#N)C(=O)NC2CCCCC2)cc1` was tested. Which survival did it give?
**A.** Its survival is inactive: 95%.

**Q.** For `O=[N+]([O-])c1ccc(C(c2sc3nc(-c4ccco4)nn3c2O)N2CCN(Cc3ccccc3)CC2)cc1` (configuration not stated), which survival is on record?
**A.** The survival was inactive: 71%.

**Q.** `O=C(Nc1ccc2c(c1)OCO2)c1cc(-c2cccc(Cl)c2)on1` was tested. Which survival did it give?
**A.** Its survival is inactive: 85%.

**Q.** With `Cc1ccc(C)c(N2CCN(C(=O)Cn3cnc4sc(C)c(S(=O)(=O)N5CCN(c6ncccn6)CC5)c4c3=O)CC2)c1` as the molecule, how does the survival read?
**A.** The survival was inactive: 82%.

**Q.** With `CCOC(=O)c1noc2ncnc(N(CCC(=O)OC)c3ccccc3)c12` as the molecule, how does the survival read?
**A.** Its survival is inactive: 127%.

**Q.** With `CCOC(=O)c1noc2ncnc(Nc3ccc(C)c(F)c3)c12` as the molecule, how does the survival read?
**A.** The survival was inactive: 90%.

**Q.** For `CN1CCN(CCCNC(=O)Cn2c(-c3cccs3)cc3ccccc32)CC1`, which survival is on record?
**A.** Its survival is inactive: 71%.

**Q.** `Cc1ccc2c(c1)sc1nc(=O)n(-c3ccc(Cl)cc3)c(=O)n12` was tested. Which survival did it give?
**A.** The survival was inactive: 77%.

**Q.** With `COc1ccc(OC)c(C2CC(=O)c3c([nH]c(C(=O)OC4CCC(C)CC4)c3C)C2)c1` (configuration not stated) as the molecule, how does the survival read?
**A.** The survival was inactive: 84%.

**Q.** For `COc1cc(NC(=O)c2cc(-c3ccc4c(c3)OCO4)on2)cc(OC)c1OC`, which survival is on record?
**A.** The survival was inactive: 146%.

**Q.** `COc1ccc(-c2cc(C)no2)cc1S(=O)(=O)NCc1ccc(OC(C)C)cc1` was tested. Which survival did it give?
**A.** The survival was inactive: 72%.

**Q.** Which survival does the source give for `O=C(Cn1cc(SCc2ccc(C(F)(F)F)cc2)c2ccccc21)N1CCCCC1` here?
**A.** The survival was inactive: 80%.

**Q.** Which survival does the source give for `CC(CC(=O)NCc1ccc(Cl)cc1)CC1=NS(=O)(=O)c2ccccc2N1` (configuration not stated) here?
**A.** The survival was inactive: 82%.

**Q.** Which survival does the source give for `COc1ccc(N2CCN(CCCNC(=O)C3COc4ccc(OC)cc4C3)CC2)cc1` (configuration not stated) here?
**A.** The survival was inactive: 78%.

**Q.** How did the survival turn out when `COc1ccc2c(CNCc3ccc(Cl)cc3)c(C(=O)O)n(Cc3ccccc3C)c2c1` was run?
**A.** Its survival is inactive: 90%.

**Q.** With `CCc1cccc2c(-c3ccccc3)nc(SCC(=O)Nc3ccccc3)nc12` as the molecule, how does the survival read?
**A.** Its survival is inactive: 88%.

**Q.** With `Cc1cccc(Nc2nnc(-n3nc(C)cc3C)c3ccccc23)c1` as the molecule, how does the survival read?
**A.** Its survival is inactive: 129%.

**Q.** `Cc1c(-c2nsc(NC(=O)c3ccc(Cl)cc3)n2)nnn1-c1ccc(C(C)C)cc1` was tested. Which survival did it give?
**A.** The survival was inactive: 87%.

**Q.** How did the survival turn out when `COc1ccc(NC(=O)c2cnn(-c3ccc(C)cc3)c2-n2cccc2)cc1Cl` was run?
**A.** The survival was inactive: 73%.

**Q.** Which survival does the source give for `COc1ccc(S(=O)(=O)c2cn(C)c3cc(N4CCCCC4)c(F)cc3c2=O)cc1` here?
**A.** The survival was inactive: 71%.

**Q.** `CC(=O)c1ccc(N2CCN(c3nc4c(S(=O)(=O)c5ccccc5)nnn4c4ccc(Cl)cc34)CC2)cc1` was tested. Which survival did it give?
**A.** The survival was inactive: 89%.

**Q.** Which survival does the source give for `Cc1cc(Br)ccc1NC(=O)c1cc2c(=O)n(C)c3cc(Cl)ccc3c2s1` here?
**A.** The survival was inactive: 69%.

**Q.** With `O=C(NC1CC(=O)N(c2ccccc2)C1)C1CCCCC1` (configuration not stated) as the molecule, how does the survival read?
**A.** The survival was inactive: 134%.

**Q.** How did the survival turn out when `COc1ccc2[nH]cc(NC(=O)NCCO)c(=O)c2c1` was run?
**A.** The survival was inactive: 112%.

**Q.** With `Cc1cc(C)cc(NC(=O)CSc2nccn2-c2ccccc2)c1` as the molecule, how does the survival read?
**A.** Its survival is inactive: 135%.

**Q.** Which survival does the source give for `Cc1cccc2nc(-c3cccnc3)c(Nc3ccc(C(C)C)cc3)n12` here?
**A.** The survival was inactive: 79%.

**Q.** For `COc1ccc(NC(=O)C2=C(C)Nc3nc(SCc4ccccc4C)nn3C2c2ccc(Br)cc2)cc1` (configuration not stated), which survival is on record?
**A.** Its survival is inactive: 61%.

**Q.** How did the survival turn out when `N#Cc1c(NC(=O)c2ccccc2)oc(-c2ccccc2)c1-c1ccccc1` was run?
**A.** The survival was inactive: 108%.

**Q.** For `COc1cc(N(C(=O)Cn2nnc3ccccc32)C(C(=O)NCC2CCCO2)c2ccc(F)cc2)ccc1-n1cnnn1` (configuration not stated), which survival is on record?
**A.** Its survival is inactive: 103%.

**Q.** For `Cc1cccc(NC(=O)C2CCN(S(=O)(=O)c3cccc4nsnc34)CC2)c1C`, which survival is on record?
**A.** Its survival is inactive: 87%.

**Q.** Which survival does the source give for `CCCCOc1c(Cl)cc(C(=O)N(Cc2ccc(C)o2)C2CCS(=O)(=O)C2)cc1Cl` (configuration not stated) here?
**A.** The survival was inactive: 91%.

**Q.** How did the survival turn out when `CCC1=NN(C(=O)c2ccccc2O)C(O)(c2ccccc2)C1` (configuration not stated) was run?
**A.** The survival was inactive: 47%.

**Q.** With `COc1ccc(S(=O)(=O)N2CCC(c3ccncc3)CC2)cc1Cl` as the molecule, how does the survival read?
**A.** The survival was inactive: 136%.

**Q.** With `CN(C(=O)c1cc(-c2ccccc2O)on1)c1ccccc1` as the molecule, how does the survival read?
**A.** Its survival is inactive: 64%.

**Q.** With `CSc1ccc(CCNc2ncnc3onc(C)c23)cc1` as the molecule, how does the survival read?
**A.** The survival was inactive: 120%.

**Q.** How did the survival turn out when `Cc1cc(C)c2oc(C(=O)N(Cc3ccc(F)cc3)C3CCS(=O)(=O)C3)cc(=O)c2c1` (configuration not stated) was run?
**A.** The survival was inactive: 112%.

**Q.** `CC(=O)N(CCCCN1C(=O)c2ccccc2C1=O)c1ccc(Cl)cc1` was tested. Which survival did it give?
**A.** The survival was inactive: 114%.

**Q.** How did the survival turn out when `CCOc1ccc(/C=C(\C#N)c2nc(-c3cc4ccccc4oc3=O)cs2)c(OCC)c1` was run?
**A.** Its survival is inactive: 85%.
